Test results from PubChem BioAssay AID1159614 (National Center for Advancing Translational Sciences (NCATS), 2016).
The campaign covered roughly 45,000 compounds. About 65 (0.1%) were called active. Calls follow the shape of the dose curve; as a rule, active = well fitted activation curve with a large enough effect; inconclusive = small, poorly fitted or top-dose-only effect; inactive = no such curve, though single readings can be large or run the other way. Some of the results follow.

The molecules below were run against Galactocerebrosidase (Homo sapiens) (UniProt P54803) (assay: A Novel Cell-Based Assay to Identify Small Molecules for B -Galactocerebrosidase). Conditions: 145M-Twi-hGALC-G270D cells, HMU-beta-Gal fluorescence, 48 h; series mostly up to 57.5 µM; activation: at the top concentration.
Chain of UniProt P54803 (P54803 whole entry, looked up): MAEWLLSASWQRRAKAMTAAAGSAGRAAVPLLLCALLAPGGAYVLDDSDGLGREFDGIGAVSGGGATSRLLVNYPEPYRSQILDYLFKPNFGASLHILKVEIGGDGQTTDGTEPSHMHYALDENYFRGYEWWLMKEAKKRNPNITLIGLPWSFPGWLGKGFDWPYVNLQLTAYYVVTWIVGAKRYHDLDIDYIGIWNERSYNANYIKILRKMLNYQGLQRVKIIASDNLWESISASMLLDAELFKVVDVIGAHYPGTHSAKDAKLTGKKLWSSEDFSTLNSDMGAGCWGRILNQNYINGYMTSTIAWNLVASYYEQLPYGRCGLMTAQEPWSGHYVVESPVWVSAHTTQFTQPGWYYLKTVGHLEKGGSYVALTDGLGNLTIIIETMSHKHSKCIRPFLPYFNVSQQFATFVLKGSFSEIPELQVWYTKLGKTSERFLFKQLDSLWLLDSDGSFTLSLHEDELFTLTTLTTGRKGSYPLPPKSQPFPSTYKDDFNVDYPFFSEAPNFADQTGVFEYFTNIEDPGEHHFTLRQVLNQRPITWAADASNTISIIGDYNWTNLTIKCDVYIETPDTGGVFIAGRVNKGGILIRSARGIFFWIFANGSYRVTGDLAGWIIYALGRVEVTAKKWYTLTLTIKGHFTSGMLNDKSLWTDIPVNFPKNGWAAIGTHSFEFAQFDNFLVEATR
In short: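 qHTS, 1536-well; 145M-Twi-hGALC-G270D cells (WT line also made) in DMEM/F12 + 10% FBS; compound incubation on live cells; HMU-β-gal 0.1 mM final, pH 5.2, NaTC; carbonate stop; fluorescence increase = enhanced residual activity.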
Also: 0% is about no effect; nearly all actives have a fitted effect of over 65% in size.

activation, inactive:
CCOc1ccccc1NC(=O)CSc1nc2c(oc3ccccc32)c(=O)n1C(C)C -15.9%, CC(C)OCCCNc1sc(S(=O)(=O)c2ccccc2)nc1S(=O)(=O)c1ccc(Cl)cc1 -9.13%, Cn1ncc2c(NCc3ccc(Cl)cc3)ncnc21 -13.7%, COc1ccc(CCNC(=O)c2cnc3ccc(C)cn3c2=O)cc1OC 8.9%, Cc1c(C(=O)Nc2ccc(F)cc2F)oc2ccc3c(c12)C(=O)CC(C)(C)O3 2.09%, COCCCNC(=O)c1cc(-c2ccc(OC)cc2)nc2n[nH]c(-c3ccc(Cl)cc3)c12 4.34%, Cc1ccc2oc(=O)c(-c3nc(-c4cccs4)no3)cc2c1 -5.68%, CCN(Cc1ccccc1)C(=O)CN1C(=O)COc2ccc(S(=O)(=O)N3CCOCC3)cc21 -12.7%, CCN(c1ccc(C)cc1C)S(=O)(=O)c1nnc(NC(=O)c2ccc(F)cc2)s1 -6.83%, Cc1csc2nc(COC(=O)c3ccc(NC(=O)c4ccccc4Br)cc3)cc(=O)n12 -38.2%, O=C(Nc1cccc(C(=O)OCc2cc(=O)n3ccsc3n2)c1)c1ccc(F)cc1 -9.29%, COc1ccc(OC)c(NC(=O)CN(c2ccccc2OC)S(=O)(=O)c2ccc(C)cc2)c1 -7.11%, Cc1ccc(NC(=O)C2CCCN2S(=O)(=O)c2ccc3c(c2)n(C)c(=O)c(=O)n3C)cc1 (stereo unspecified) -9.58%, Cc1nc2nc(SCC(=O)NCCc3ccc(Cl)cc3)nn2c(C)c1Cc1c(F)cccc1Cl -12.6%, CCOCCCNC(=O)CCC(=O)NNc1nc2ccccc2c2nc(C)nn12 -5.49%, Cc1nn(CCC(=O)Nc2cccc(C#N)c2)c(C)c1S(=O)(=O)N1CCC(C)CC1 -1.26%, COC(=O)c1ccccc1NC(=O)Cc1nc(-c2ccc(OC)cc2)no1 -3.93%, COc1ccc(-n2cnc3cc(C(=O)NCCC4=CCCCC4)ccc32)cc1 -13.3%, O=C(CSc1nc2ccccc2n1Cc1cccc(C(F)(F)F)c1)NCc1ccccc1 -8.71%, Cc1cc(C)cc(NC(=O)Cn2c(C)cc(C)c(C#N)c2=O)c1 -9.33%, CCOc1cccc(C2Oc3nc(SC)nnc3-c3ccccc3N2C(C)=O)c1OC (stereo unspecified) -18.7%, CC(=O)Nc1ccc(NC(=O)c2c(-c3ccccc3)noc2C)cc1 2.75%, O=C(O)c1ccc(CSc2nc3cccnc3n2Cc2cccc(F)c2)cc1 -5.65%, CCCOc1ccc(C(=O)Nc2cccc(NC(=O)c3ccc(Cl)cc3Cl)c2)cc1 -18.7%, Cc1nn(CC(=O)NCc2ccco2)c(=O)c2nn(-c3ccccc3)c(C)c12 -5.86%, CC(=O)N1CCc2cc(CNS(=O)(=O)c3ccccc3C(F)(F)F)ccc21 -9.22%, COc1cc(NC(=O)CSc2ccc(-c3sc(C)nc3C)nn2)cc(OC)c1 -10.3%, Cc1ccc(S(=O)(=O)C(CNC(=O)C(=O)NCCc2ccc(F)cc2)c2cccs2)cc1 (stereo unspecified) -6.41%, O=C(CSc1nc2c([nH]c3ccccc32)c(=O)n1-c1ccc(F)cc1)Nc1ccc2c(c1)OCO2 -4.54%, COc1ccc(N2CCN(C(=O)c3ccc(CS(=O)c4cccc(C)c4)o3)CC2)cc1 (stereo unspecified) -5.99%, COc1ccc(Cl)cc1NC(=O)c1oc2ccc(S(=O)(=O)N3CCCCC3)cc2c1C -9.6%, Nc1ncc(S(=O)(=O)N2CCN(c3ccccc3)CC2)cn1 -10.3%, COC(=O)CC1Oc2ccc(Cl)cc2-n2cc(-c3ccc(C)cc3)nc21 (stereo unspecified) 16.2%, COc1ccc(CCNC(=O)c2c3c(nc4ccccc24)C(=O)N(C2CCCCC2)C3)cc1OC -11.9%, O=C(COc1ccc(F)cc1)NCc1ccc2c(c1)CCN2C(=O)c1ccc(F)cc1 -19%, Cc1ccc(C)c(N2CCN(c3nc4ccccc4n4nnnc34)CC2)c1 -4.34%, O=C(Nc1ccc(F)c(Cl)c1)C1CCN(c2ncccn2)CC1 -10.5%, Oc1c(C(c2cccc(Cl)c2)N2CCOCC2)sc2nc(-c3ccco3)nn12 (stereo unspecified) 1.6%, CCN1c2ccccc2-c2nc(SCC(=O)Nc3cc(C)c(Cl)cc3OC)ncc2S1(=O)=O -15.9%, COC(=O)c1ccccc1NC(=O)C1CCCN(C(=O)c2cnn(-c3ccc(F)cc3)c2-n2cccc2)C1 (stereo unspecified) -37.7%, Cc1cc(Br)cc(C)c1OCC(=O)Nc1ccc(S(=O)(=O)Nc2ncccn2)cc1 3.72%, COCCn1c(=O)[nH]c2cc(C(=O)N3CCN(c4ccc(F)cc4)CC3)ccc2c1=O -8.26%, Cc1cccc(OCC(=O)Nc2ccc(S(=O)(=O)N(Cc3ccccc3)c3ccccc3)cc2)c1 -16.5%, Cc1cc(-n2c(C)nc3ccccc3c2=O)ccc1NC(=O)c1cccc([N+](=O)[O-])c1C -16.2%, CCOCCc1nn2c(=O)cc(COC(=O)c3ccccc3Br)nc2s1 -9.05%, O=C(NCCc1csc(-c2ccc(C(F)(F)F)cc2)n1)c1ccccc1Cl -12.6%, Cc1ccc(-n2ncc3c(N4CCN(Cc5ccccc5)CC4)ncnc32)cc1C -12.3%, N#C/C(=C\c1ccc(-c2ccc(Br)cc2)o1)C(=O)Nc1ccccc1O -6.29%, Cc1oc(-c2ccccc2F)nc1Cn1c(SCc2cccc(Cl)c2)nc2ccncc21 -15.5%, CCCn1c(=N)c(C(=O)NCc2ccccc2)cc2c(=O)n3cccc(C)c3nc21 27.5%, Cc1ccc(CNC(=O)C(=O)NCC(c2cccs2)S(=O)(=O)c2ccccc2)cc1 (stereo unspecified) -10.7%, O=c1n(Cc2ccc([N+](=O)[O-])cc2)c2ccccc2c2nc(-c3ccccc3)nn12 -5.15%, Cc1ccc(NC(=O)N(Cc2c[nH]c3ccccc23)C2CCCCCC2)cc1C 3.07%, O=C(CS(=O)(=O)c1ccc(Cl)cc1)Nc1nc2ccc(Br)cc2s1 -18.9%, COc1ccc(CCNC(=O)CCN2N=C(c3ccccc3)CCC2=O)cc1OC -10.8%, Cc1ccc(C(=O)N2CCc3cc(CNC(=O)c4ccccc4F)ccc32)cc1 -7.13%, Cn1c(=O)n(C)c2cc(CNCc3ccc(F)cc3)ccc21 -11.9%, CCOc1ccc(C2=C(C(C)=O)Sc3nnc(C)n3N2C(C)=O)cc1 -17.9%, Cc1c(NC(=O)Nc2ccccc2C(F)(F)F)c(=O)n(-c2ccccc2)n1C -14.7%, Cc1cc(C)cc(-n2c(SCC(=O)Nc3ccccc3F)nc3c(oc4ccccc43)c2=O)c1 -4.58%, CCOc1ccc(NC(=O)c2cccc3c(=O)c4c([nH]c23)CCCC4)cc1 -18%, Cc1ccc(Cn2cnc3nc4c(cc3c2=O)CCCC4)cc1 -7.09%, Cc1cc(C)c(NC(=O)CN(c2ccccc2)S(=O)(=O)N(C)C)c(C)c1 -25.5%, CCc1ccc(NC(=O)C2(c3cccs3)CCOCC2)cc1 1.43%, Cc1oc2ncn(CC(C)C)c(=O)c2c1C(=O)N1CCN(c2ccccc2F)CC1 -6.69%, Clc1ccc(-c2nnn3c2nc(N2CCCCC2)c2ccccc23)cc1 -7.16%, CCOc1ccc(NC(=O)c2cnn3c2NC(c2ccccc2)=CC3c2cccc(OC)c2OC)cc1 (stereo unspecified) -15.9%, Cc1ccccc1NC(=O)c1cc2ccccc2o1 -4.85%, CSc1ccc(CCNC(=O)CN2C(=O)COc3ccc(S(=O)(=O)N4CCCC4)cc32)cc1 -28.8%, O=C(Nc1ccc2oc(-c3ccc4ccccc4c3)nc2c1)c1cccc(Cl)c1Cl -20%, COc1ccc(-n2c(=O)c3c4c(sc3n(Cc3c(F)cccc3Cl)c2=O)CN(C(C)=O)CC4)cc1OC -15.8%, O=C(Nc1ccc(F)cc1)c1ncn(-c2ccccc2)n1 -20.7%, CCOC(=O)c1cnc2c(Cl)c(Cl)ccc2c1Nc1ccc(N(C)C)cc1 -6.44%, Cc1ccccc1-n1c(=O)c2ccccc2n(Cc2ccc(F)cc2)c1=O -5.59%, COc1ccc(C2CC(=O)N(Cc3cccc(C)c3)c3c2c(C)nn3-c2nc(C)cc(C)n2)c(OC)c1 (stereo unspecified) -15.4%, COC(=O)c1sc2cccc(F)c2c1S(=O)(=O)NCc1ccc(F)cc1 -1.7%, COc1cccc(-c2nc(SCC(=O)NCc3ccccc3)c3c(=O)n(C)c(=O)n(C)c3n2)c1 -14.6%, CCCCSCCCNC(=O)c1cn(CC)c2ccc(S(=O)(=O)N(C)C3CCCCC3)cc2c1=O -19.2%, COc1cccc(N2CCN(S(=O)(=O)c3ccc(-c4cc(C(F)(F)F)on4)s3)CC2)c1 -9.09%, O=C(Cn1ccc2cc(S(=O)(=O)N3CCCCCC3)ccc21)NCCc1ccccc1Cl -9.31%, Cc1ccc(CCNC(=O)CCS(=O)(=O)c2ccc3c(c2)oc(=O)n3C)cc1 -23.8%, O=S(=O)(c1ccccc1)n1nc(-c2ccc(Cl)cc2)nc1NCc1ccc(F)cc1 -34.1%, COc1cccc(NC(=O)Cn2c(=O)c3cccn3c3ccc(F)cc32)c1 -15.9%, Cc1ccc(-c2noc(CN(C(=O)c3ccc(C(C)(C)C)cc3)C(C)C)n2)cc1 -39.2%, CCCc1cc(C(N)=S)ccn1 -9.05%, CCOC(=O)c1ccccc1NC(=O)CN(c1cc(C(F)(F)F)ccc1Cl)S(C)(=O)=O -12.4%, CN(CC(=O)NCc1ccc(Cl)cc1)S(=O)(=O)c1ccc2c(c1)c(=O)n(C)c(=O)n2C 14.7%, Cc1ccc(CCNC(=O)c2ccc(CS(=O)(=O)Cc3ccc(Cl)cc3)o2)cc1 1.46%, CCOC(=O)c1scc(-c2ccc(C)cc2)c1S(=O)(=O)Nc1cc(C)ccc1C -44.4%, COc1cc(Cl)c(C)cc1NC(=O)Cn1cnc2sc(C)c(S(=O)(=O)N3CCCCC3)c2c1=O -13.7%, Cc1noc(NS(=O)(=O)c2ccc(NC(=O)COc3ccccc3Br)cc2)c1C -10.1%, CCOc1ccccc1NC(=O)Nc1ccccc1OCc1cc(=O)n2ccccc2n1 -6.92%, CC(Nc1ncnc2c1cnn2-c1cccc(Cl)c1)c1ccccc1 (stereo unspecified) -21.9%, COc1cccc(-c2nnc(SCC(=O)N3CCc4ccccc43)o2)c1 -8.26%, O=C(NCc1ccc(Cl)cc1)C(=O)NCC(c1cccnc1)N1CCN(c2ccccc2)CC1 (stereo unspecified) -13%, CCS(=O)(=O)c1c(S(=O)(=O)CC)c2cc(C(C)(C)C)ccn2c1C(=O)c1ccc(F)cc1 -16.8%
